In the supplement of paper PMC3724861:
This is one part of the list.

System: T1, Caupolican (Caup) homeodomain DNA-binding domain
T1 sequence: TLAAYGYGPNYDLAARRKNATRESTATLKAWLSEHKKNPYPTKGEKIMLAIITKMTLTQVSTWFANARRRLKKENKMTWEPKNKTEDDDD
Assay: PBM E-score (8-mer, recovered from the published 9-mer minima) (E-score (dimensionless, -0.5 to 0.5)); Drosophila protein; higher = stronger relative binding preference, active = 0.31 or more
Protocol: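 Protein binding microarray (PBM): in vitro transcribed/translated Caupolican (Caup) homeodomain DNA-binding domain (residues 214-303) applied at 100 nM to a universal 8-mer PBM array (Agilent AMADID 015681). The 8-mer enrichment score (E-score, range -0.5 to 0.5) was computed, and each 9-mer score is the minimum E-score of its two constituent 8-mers. The E-score is the same for a 9-mer and its reverse complement; 0.31 is the stated binding threshold.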

| Sequence | PBM E-score |
| --- | --- |
| CTTTTATA | inactive: -0.0123 |
| TACAACCA | inactive: 0.308 |
| ACGAATCC | inactive: 0.0795 |
| CTAACGCC | inactive: -0.118 |
| ACCAGGCA | inactive: -0.002 |
| AAATTGGG | inactive: -0.0398 |
| AGAGGGCC | inactive: -0.297 |
| ATTCTACA | ≥ 0.298 |
| TACTTAGA | inactive: 0.0139 |
| ACATTGGG | inactive: 0.0631 |
| ATCAGTGG | inactive: 0.0687 |
| GTGGGATA | inactive: -0.0102 |
| CCATGAGA | inactive: -0.061 |
| GCTATGTA | inactive: 0.271 |
| AGGGTTAT | ≥ 0.0931 |
| AGCCTGTC | inactive: -0.0495 |
| CAAAATGC | inactive: 0.0504 |
| AGTGCACA | inactive: 0.0472 |
| AATATGGC | inactive: 0.115 |
| CGATACGC | inactive: -0.0266 |
| CCTCGATC | inactive: -0.13 |
| ATAGGGCC | inactive: -0.127 |
| TCCTAGAA | inactive: -0.0532 |

| Sequence | PBM E-score |
| --- | --- |
| CCGAGTTC | inactive: -0.0561 |
| TCCGGGCA | ≥ -0.145 |
| ACGTGCTG | inactive: 0.0361 |
| AAGCGCGC | inactive: -0.139 |
| GAAACCAA | inactive: 0.0894 |
| ACCCGTCC | inactive: -0.206 |
| GAGGAGAC | inactive: -0.136 |
| AGTGTTCA | inactive: 0.198 |
| CTGTGCCC | inactive: -0.154 |
| AAACGTTT | inactive: 0.072 |
| CTGCACGA | inactive: -0.01 |
| ACCGATCC | inactive: -0.0859 |
| AGCTCGTG | inactive: 0.0341 |
| GCCTCCAC | inactive: -0.223 |
| CATACCGC | inactive: -0.0667 |
| CCTTTAGC | inactive: -0.0323 |
| CGAGCCTA | inactive: -0.0252 |
| AAGAGTTA | ≥ 0.0747 |
| AATGGGCG | inactive: -0.00794 |
| GCATATGA | inactive: 0.0647 |
| AAACAGTA | ≥ 0.225 |
| GACACAAC | inactive: 0.216 |
| CCACGGTA | inactive: -0.0587 |

| Sequence | PBM E-score |
| --- | --- |
| ACGCGCTG | inactive: -0.164 |
| TGGGGGAA | inactive: -0.237 |
| AATGGGGA | inactive: -0.0547 |
| GTCACCAA | inactive: 0.0824 |
| CAGCGAGC | inactive: -0.104 |
| AGGAGAGG | inactive: -0.164 |
| AGGCAGGG | inactive: -0.102 |
| GAAATACC | inactive: 0.0151 |
| GAAGCCCC | inactive: -0.244 |
| CAGCATGG | inactive: 0.0496 |
| CTTCATGA | inactive: -0.0142 |
| ATATGACC | inactive: 0.021 |
| AGCAATCA | inactive: 0.0951 |
| AGCCCGCC | inactive: -0.245 |
| GAACGCTC | inactive: -0.129 |
| ATCAGAAT | inactive: 0.066 |
| CTCTGTAC | inactive: 0.137 |
| CTACGTTC | inactive: -0.0202 |
| ACGCACCC | inactive: -0.0794 |
| GTACTAAA | inactive: 0.229 |
| CCTCCTAC | inactive: -0.136 |
| CCGACGTA | inactive: -0.0642 |
| GTCTCCAA | inactive: -0.0607 |

| Sequence | PBM E-score |
| --- | --- |
| CGATAGAC | inactive: 0.0316 |
| ATTTTTGG | inactive: -0.0403 |
| ACACTAAC | inactive: 0.149 |
| CACACCCA | inactive: 0.0024 |
| ACTAGTGC | inactive: 0.0444 |
| CAGGACTG | inactive: -0.0782 |
| GGAGGGAC | inactive: -0.132 |
| CTTACTAC | inactive: 0.156 |
| ATCGCCCC | inactive: -0.134 |
| CAACGGAG | inactive: -0.125 |
| CTTACAGC | inactive: 0.0782 |
| CCACTCAG | inactive: -0.0569 |
| CACCCGGA | ≥ -0.00956 |
| CCCCGGAC | inactive: -0.105 |
| GTCGTCTA | inactive: 0.0468 |
| AGGCCTCA | inactive: -0.195 |
| CAAGAAGC | inactive: -0.0853 |
| AGTAAACA | inactive: 0.235 |
| CGTTTCGC | inactive: -0.188 |
| GCAACTAA | inactive: 0.0557 |
| CGAACGCG | inactive: -0.0926 |
| TCCCTCGA | inactive: -0.113 |
| GAGTTAGC | inactive: -0.0248 |

| Sequence | PBM E-score |
| --- | --- |
| ACCTTTGG | inactive: -0.197 |
| GTGCGCAA | inactive: -0.09 |
| AGGGGACT | inactive: -0.177 |
| CCTTCATA | inactive: -0.00957 |
| CGTCGTGA | inactive: -0.0474 |
| ACTAACGA | inactive: 0.0387 |
| AGTATAGC | inactive: 0.013 |
| GATAATCC | inactive: 0.0237 |
| AGAGCTGC | inactive: -0.165 |
| CGTAAGAA | inactive: 0.00432 |
| CTATTGAC | inactive: 0.0132 |
| ATGCTACA | inactive: 0.26 |
| CCTGCACG | inactive: -0.0334 |
| AAGGTAGC | inactive: -0.125 |
| CGCCCACA | inactive: -0.118 |
| ACAGGTGG | inactive: 0.0225 |
| ATAAGCCA | inactive: 0.00974 |
| ATAGGGCG | inactive: -0.159 |
| AGCGTTCG | inactive: -0.141 |
| CGTAGACC | inactive: -0.149 |
| TAAAGGAA | inactive: 0.07 |
